The results in this text go back to patent US20230365703A1 (SHANGHAI LYN CREST ENTERPRISE MANAGEMENT, published 2023).

The target in assay [1] is T1, human CD20 on cells (CHO-K1-hCD20 cells; Raji cells) (human, UniProt P11836 1-297).
T1 construct: whole, on cells; also called CD20 antigen
T1 sequence (looked up): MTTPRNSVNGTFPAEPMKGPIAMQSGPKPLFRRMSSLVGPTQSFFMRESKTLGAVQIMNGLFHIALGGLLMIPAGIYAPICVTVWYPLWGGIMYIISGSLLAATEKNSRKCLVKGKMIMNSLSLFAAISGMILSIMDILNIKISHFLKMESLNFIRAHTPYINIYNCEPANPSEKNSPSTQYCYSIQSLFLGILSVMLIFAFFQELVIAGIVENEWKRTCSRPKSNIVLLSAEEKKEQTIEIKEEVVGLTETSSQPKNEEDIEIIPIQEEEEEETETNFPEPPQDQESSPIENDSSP
In words: flow cytometry on Raji cells (CD20+/CD47+; binding to CD20 and CD47 is not separated), anti-human IgG-FITC detection. A general note: Flow cytometry measures light scatter and fluorescence of single cells or particles in a stream.

For assay [2], the target named is T2, human CD47-Fc chimeric protein (human, UniProt Q08722 in part).
T2 construct: also called hCD47; human CD47 protein; not shown: Fc part, not specified
T2 sequence (Q08722 19-139 limits assumed, change not shown): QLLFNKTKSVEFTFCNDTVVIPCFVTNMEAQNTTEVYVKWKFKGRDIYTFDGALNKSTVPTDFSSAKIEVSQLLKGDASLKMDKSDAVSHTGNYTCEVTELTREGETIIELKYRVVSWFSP
The assay is described as follows: SPR (Biacore T200), human CD47-Fc captured on anti-human IgG (Fc) CM5 chip, analyte 50 nM, bivalent analyte model.

B1: LCB-002 (bispecific antibody, human IgG1, kappa)
heavy: EVQLVESGGGLVQPGRSLRLSCAASGFTFNDYAMHWVRQAPGKGLEWVSTISWNSGSIGYADSVKGRFTISRDNAKKSLYLQMNSLRAEDTALYYCAKDIQYGNYYYGMDVWGQGTTVTVSSASTKGPSVFPLAPSSKSTSGGTAALGCLVKDYFPEPVTVSWNSGALTSGVHTFPAVLQSSGLYSLSSVVTVPSSSLGTQTYICNVNHKPSNTKVDKKV[left out - human IgG1 Fc with changes]
chain: not shown
notes: also called CD20 × SIRPαD1 bispecific recombinant protein
Consider B1, for which the binding result in assay [1] is “binds”. In addition, in assay [2], the Kd was 0.0528 µM.
